Results reported in a collection of fitness landscapes (doi:10.1016/j.celrep.2020.107928).
The full ranking holds about 81,000 sequences; the median of “one-hybrid fitness for binding NBS DNA” is about -0.1, and the highest 2% start at about 0.36. The list shows a part of the results.

B1: Caulobacter ParB omega fusion; a variant is named by its letters at X, in order, B8GW30 (parent)
chain: MESVVVGEPGMSEGRRGLGRGLSALLGEVDAAPAQAPGEQLGGSREAPIEILQRNPDQPRRTFREEDLEDLSNSIREKGVLQPILVRPSPDTAGEYQIVAGERAWRAAQRAGLKTVPIMVRELDDLAVLEIGIIENVQRADLNVLEEALSYKVLMEKFERTQENIAQTIGKSXSHVANXMRLLXLPDEVQSYLVSGELTAXHARAIAAAADPVALAKQIIEGGLSVRETEALARKAPNLSAGKSKGGRPPRVKDTDTQALESDLSSVLGLDVSIDHRGSTGTLTITYATLEQLDDLCNRLTRGI

Variants of: B1
Assay: one-hybrid fitness for binding NBS DNA (the Noc-binding site; scaled: cognate 1, non-cognate 0); higher = stronger binding
Settings: with NBS DNA site
How it was run: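 On M9-minus-histidine containing 0.1 mM IPTG and 5 mM 3-AT, E. coli USO cells with a HIS3 reporter, site 19 bp from the promoter, grew 48 hours at 37°C to select Caulobacter ParB libraries randomised at four specificity codons. Plasmids from before and after were Illumina-sequenced, with three replicate libraries pooled and variants under 10 reads left out. Fitness is the log change in variant-to-wild-type read ratio, rescaled against cognate and non-cognate.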

| Variant | one-hybrid fitness for binding NBS DNA |
| --- | --- |
| GPYH | ≤ 0.2 |
| ANYC | ≤ 0.2 |
| CGNS | ≤ 0.2 |
| HTRV | ≤ 0.2 |
| QMPR | 0.323 |
| CTSL | ≤ 0.2 |
| KRQP | ≤ 0.2 |
| TGMV | ≤ 0.2 |
| PELR | ≤ 0.2 |
| GMSR | ≤ 0.2 |
| HKDR | ≤ 0.2 |
| MCHT | ≤ 0.2 |
| NNQP | ≤ 0.2 |
| GCAI | ≤ 0.2 |
| NHCS | ≤ 0.2 |
| LNKI | ≤ 0.2 |
| VSMY | ≤ 0.2 |
| QFPD | ≤ 0.2 |
| VRYL | ≤ 0.2 |
| GGHC | ≤ 0.2 |
| VKRL | ≤ 0.2 |
| SKRN | ≤ 0.2 |
| AKEV | ≤ 0.2 |
| NWCG | ≤ 0.2 |
| NANL | ≤ 0.2 |

| Variant | one-hybrid fitness for binding NBS DNA |
| --- | --- |
| IVLG | ≤ 0.2 |
| LNGD | ≤ 0.2 |
| TTGF | ≤ 0.2 |
| YTAW | ≤ 0.2 |
| YREL | ≤ 0.2 |
| YITL | ≤ 0.2 |
| IKAS | ≤ 0.2 |
| ASDD | ≤ 0.2 |
| RGHG | ≤ 0.2 |
| CVSS | ≤ 0.2 |
| IHVT | ≤ 0.2 |
| FHYS | ≤ 0.2 |
| ARAN | ≤ 0.2 |
| DHLA | ≤ 0.2 |
| ARRM | ≤ 0.2 |
| EREG | ≤ 0.2 |
| AIPT | ≤ 0.2 |
| FRAS | ≤ 0.2 |
| SPVT | ≤ 0.2 |
| MHVL | ≤ 0.2 |
| RRRP | 0.283 |
| SQPN | ≤ 0.2 |
| LREG | ≤ 0.2 |
| MTGF | ≤ 0.2 |
| CGKS | ≤ 0.2 |

| Variant | one-hybrid fitness for binding NBS DNA |
| --- | --- |
| NGVG | ≤ 0.2 |
| QLAE | ≤ 0.2 |
| PHTG | ≤ 0.2 |
| AAHA | ≤ 0.2 |
| GGED | ≤ 0.2 |
| RLEE | ≤ 0.2 |
| IAIG | ≤ 0.2 |
| PDPS | ≤ 0.2 |
| CISR | ≤ 0.2 |
| KWNR | ≤ 0.2 |
| HMMG | ≤ 0.2 |
| VVQC | ≤ 0.2 |
| NRTS | ≤ 0.2 |
| APCG | ≤ 0.2 |
| QILT | 0.236 |
| HLTE | ≤ 0.2 |
| AHRA | ≤ 0.2 |
| RPSA | ≤ 0.2 |
| GHWE | ≤ 0.2 |
| PRNK | ≤ 0.2 |
| TFSG | ≤ 0.2 |
| VRRD | ≤ 0.2 |
| LGCT | ≤ 0.2 |
| PTPQ | ≤ 0.2 |
| HCDL | ≤ 0.2 |

| Variant | one-hybrid fitness for binding NBS DNA |
| --- | --- |
| AGER | ≤ 0.2 |
| RIGD | ≤ 0.2 |
| ISEA | ≤ 0.2 |
| SGMF | ≤ 0.2 |
| KRIK | ≤ 0.2 |
| RCHM | ≤ 0.2 |
| CFHT | ≤ 0.2 |
| GENT | ≤ 0.2 |
| RCCW | ≤ 0.2 |
| HVHW | ≤ 0.2 |
| IALY | ≤ 0.2 |
| NCTK | ≤ 0.2 |
| LRAK | ≤ 0.2 |
| QKTF | ≤ 0.2 |
| TKWF | ≤ 0.2 |
| YKLT | ≤ 0.2 |
| HTMP | ≤ 0.2 |
| TRSI | ≤ 0.2 |
| QVSV | ≤ 0.2 |
| IIPV | ≤ 0.2 |
| YTIV | ≤ 0.2 |
| EHHR | ≤ 0.2 |
| QIQA | ≤ 0.2 |
